From PubChem BioAssay AID686979 (National Center for Advancing Translational Sciences (NCATS), 2013)
Screen size: about 420,000 compounds; about 50,000 (12%) were called active. The inconclusive results got no clear call from the source; some entries with a clear call stand among them for comparison. The call rests on the fitted dose curve; in most records, active means well fitted inhibition curve with a large enough effect; inconclusive means small, poorly fitted or top-dose-only effect; inactive means flat fitted curve, though single readings scatter. Potencies of inconclusive entries are left out as doubtful fits.

test: qHTS for Inhibitors of human tyrosyl-DNA phosphodiesterase 1 (TDP1): qHTS in cells in presence of CPT; conditions: chicken DT40 Tdp1-/-;hTDP1 cells + 20 nM CPT, ATP luminescence, 48 h; activity change, negative = growth inhibition: at 46.2 µM (top of the series) unless noted; further: nearly all actives have a fitted effect of over 55% in size
Summary of the method: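 Cell growth measured by CellTiter-Glo luminescence after a minimum 48 h, 37 C compound exposure with 20 nM CPT in Tdp1-knockout DT40 cells stably expressing hTDP1, seeded 400/well; qHTS titration format.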
On the % scale 0 is the no-effect control and ±100 the full control effect; potency means the concentration at half of the fitted maximal effect; tags describe the fitted curve by direction and shape.

SMILES | Potency | activity change, negative = growth inhibition
O=C(NC1CCSC1=O)c1cccc(C(=O)NC2CCSC2=O)c1 (stereo not given) | inactive | 
N#Cc1c(N)nc2c3c(sc(=N)c2c1N)NC(=O)CC3c1c(F)cccc1Cl (stereo not given) | inconclusive [inhibitor, single point] | 
CCCCn1nc(C(=O)NC2=NCCS2)c2ccccc2c1=O | inactive | 
COC(=O)c1ccc(C2Nc3c(C)cccc3-c3cc(C)nn32)cc1 (stereo not given) | inconclusive [inhibitor, single point] | 
O=C(Cn1c(=O)oc2cc(S(=O)(=O)NCc3ccccc3)ccc21)Nc1cccc(F)c1 | inconclusive [inhibitor, single point] | 
COc1ccc(NC(=O)C(NS(=O)(=O)c2cccc3nsnc23)C(C)C)cc1 (stereo not given) | inactive | 
O=C(CN1C(=O)C2(OCCO2)c2ccccc21)c1ccc(Br)cc1 | inconclusive [inhibitor, partial curve] | 
COc1ccc2c(c1)CCc1c(C(=O)N3CC4(C)CC3CC(C)(C)C4)noc1-2 (stereo not given) | active: 16.4 µM | 
COc1ccc(CCCc2nnc(SCc3nc4ccccc4c(=O)[nH]3)n2C)cc1 | inconclusive [inhibitor, single point] | 
COc1cc(C(O)c2nc(-c3cccc(F)c3)cs2)ccc1F (stereo not given) | inconclusive [inhibitor, partial curve, poor fit] | 
Cc1ccc(C2(C)NC(=O)N(CC(=O)NNC(=O)c3ccccc3F)C2=O)cc1 (stereo not given) | inactive | 
CC/C(=C\c1oc2cc3ccccc3cc2[n+]1CC)Nc1ccccc1 | active: 4.61 µM | 
Cc1ccc(NS(=O)(=O)c2ccc(NC(=O)C3CC3)cc2)c(C)c1 | inconclusive [inhibitor, single point] | 
Cc1ccccc1CN1C(=O)c2ccccc2Sc2ccc(C(=O)NCCN3CCOCC3)cc21 | inconclusive [inhibitor, single point] | 
Brc1ccc(N/N=C(/N=Nc2nn[nH]n2)c2ccccc2)cc1 | active: 2.91 µM | 
COc1cccc(-c2cccc(-c3nc(C(=O)NCc4ccc(Oc5ccccc5)cc4)cc4c3[C@H](CCO)N(S(=O)C(C)(C)C)C4)c2)c1 (stereo not given in full) | inconclusive [inhibitor, single point] | 
CCN1CCN(c2ccc(S(=O)(=O)N3CCOCC3)cc2NC(=O)c2ccc(C)c(C)c2)CC1 | inconclusive [inhibitor, single point] | 
COc1ccc(NC(=O)c2cc3ccccc3o2)c(OC)c1 | inconclusive [inhibitor, single point] | 
COc1cccc(NC(=O)CCC2CCN(C(=O)c3cncs3)CC2)c1 | inactive | 
CC(=O)OC[C@H]1O[C@@H](Sc2cccc3cccnc23)[C@H](OC(C)=O)[C@@H](OC(C)=O)[C@H]1OC(C)=O | active: 18.4 µM | 
COC(=O)c1cccc(Cn2c(Cl)c(/C=N/NC(=O)c3ccccc3Cl)sc2=O)c1 | inconclusive [inhibitor, single point] | 
CC(C)(C)NC(=O)CN1C(=O)c2cccc3cccc1c23 | inactive | 
Cc1ccccc1OCC(=O)NNC(=O)CN1C(=O)c2ccccc2C1=O | inactive | 

SMILES | Potency | activity change, negative = growth inhibition
O=C(c1ccc(F)cc1)c1cn(Cc2ccccc2)c2cc3c(cc2c1=O)OCO3 | inconclusive [inhibitor, single point] | 
CCOc1ccccc1NC(=O)Cc1coc2ccc(C)cc12 | inconclusive [inhibitor, single point] | 
CCc1cc(=O)[nH]c(SCc2cccc3ccccc23)n1 | inactive | 
NC(=O)C1CCCN(C(=O)c2ccc3nc(Cc4cccc(Cl)c4)oc3c2)C1 (stereo not given) | inactive | 
COc1ccc(CCNC(=O)c2ccc(Cl)cc2)cc1 |  | inconclusive: -34.6% [inhibitor]
C=CCNC(=O)c1ccccc1NC(=O)c1ccc(Cl)c(S(=O)(=O)Nc2ccccc2)c1 | inconclusive [inhibitor, single point] | 
O=C(CN1CCCCC1)Nc1ccccc1-c1ccccc1 | inconclusive [inhibitor, partial curve] | 
CC1=C(C(=O)N(C)C)CC(CC(=O)NC2CCCC2)C(=O)N1Cc1ccc(F)cc1 (stereo not given) | inactive | 
COc1ccc(-c2cc(C(=O)NCc3cn(C)nc3C)c3ccccc3n2)cc1OC | active: 14.6 µM | 
Cc1oc(-c2ccc(C(=O)Nc3ccc(F)cc3)cc2)nc1COc1ccccc1 | inconclusive [inhibitor, partial curve, poor fit] | 
CCOC(=O)C1CCN(C(=O)COC(=O)c2ccc([N+](=O)[O-])o2)CC1 | inconclusive [inhibitor, partial curve] | 
O=C(Nc1ccc(N2CCCCC2)cc1)c1ccccn1 | active: 16.4 µM | 
COc1ccc(NS(=O)(=O)c2ccc(-c3coc(C)n3)cc2)cc1 | inconclusive [inhibitor, partial curve] | 
COc1ccc(NC(=O)CSCC(=O)N2c3ccccc3CCc3ccccc32)cc1 | inconclusive [inhibitor, single point] | 
COc1ccc(C2=CC(c3cc(Br)ccc3F)n3c(nc4ccccc43)N2)cc1 (stereo not given) | inconclusive [inhibitor, single point] | 
O=C(Nc1c(C(=O)N2CCN(c3ccccc3F)CC2)oc2ccccc12)c1cccc(F)c1 | inconclusive [inhibitor, single point] | 
CCC(=O)Nc1cccc(NC(=S)NC(=O)c2ccc(Cl)cc2)c1 | active: 18.4 µM | 
Cc1ccc2[nH]c(=O)c3cc(C(=O)N4CCN(C(=O)c5ccco5)CC4)sc3c2c1 | inconclusive [inhibitor, single point] | 
CSc1ncnc2c1ncn2CCCNC1CCN(Cc2ccccc2)CC1 | inconclusive [inhibitor, single point] | 
CCOC(=O)c1c(-c2ccccc2)csc1NC(=O)CSc1nncs1 | active: 23.1 µM | 
COc1ccc(S(=O)(=O)NN=C2CCCC2)cc1 | inactive | 
Cc1nnc(SCc2nc3ccccc3[nH]2)s1 | inactive | 
